Data as given in paper PMC6975629 (Nano Letters, 2019).

How the values were obtained:
[1] = biological target: T1, mCherry, isolated form (engineered mCherry (Discosoma sp. DsRed …)); test: SPR
[2] = biological target: T1, mCherry, isolated form; test: ITC

B1: VHH(WT), anti-mCherry VHH domain, isolated form (VHH)
VHH: QVQLVESGGSLVQPGGSLRLSCAASGRFAESSSMGWFRQAPGKEREFVAAISWSGGATNYADSAKGRFTLSRDNTKNTVYLQMNSLKPDDTAVYYCAANLGNYISSNQRLYGYWGQGTQVTVSS
Kd [1]: 163 nM
koff [1]: 0.00853 s⁻¹
kon [1]: 52300 M⁻¹ s⁻¹
Kd [2]: 69 nM
dH [2]: -5190 cal·mol^–1
